# In all, about 310,000 compounds went through this assay and about 2,200 (0.71%) showed an effect of 50% or more. Effects have a minus sign here. Some of the results follow.
# Molecular target: human ether-à-go-go-related gene (hERG) potassium channel (human, UniProt Q12809)
# Test: primary screen, population patch clamp on CHO cells stably expressing hERG
# human ether-à-go-go-related gene (hERG) potassium channel, sequence (Q12809 whole entry, looked up): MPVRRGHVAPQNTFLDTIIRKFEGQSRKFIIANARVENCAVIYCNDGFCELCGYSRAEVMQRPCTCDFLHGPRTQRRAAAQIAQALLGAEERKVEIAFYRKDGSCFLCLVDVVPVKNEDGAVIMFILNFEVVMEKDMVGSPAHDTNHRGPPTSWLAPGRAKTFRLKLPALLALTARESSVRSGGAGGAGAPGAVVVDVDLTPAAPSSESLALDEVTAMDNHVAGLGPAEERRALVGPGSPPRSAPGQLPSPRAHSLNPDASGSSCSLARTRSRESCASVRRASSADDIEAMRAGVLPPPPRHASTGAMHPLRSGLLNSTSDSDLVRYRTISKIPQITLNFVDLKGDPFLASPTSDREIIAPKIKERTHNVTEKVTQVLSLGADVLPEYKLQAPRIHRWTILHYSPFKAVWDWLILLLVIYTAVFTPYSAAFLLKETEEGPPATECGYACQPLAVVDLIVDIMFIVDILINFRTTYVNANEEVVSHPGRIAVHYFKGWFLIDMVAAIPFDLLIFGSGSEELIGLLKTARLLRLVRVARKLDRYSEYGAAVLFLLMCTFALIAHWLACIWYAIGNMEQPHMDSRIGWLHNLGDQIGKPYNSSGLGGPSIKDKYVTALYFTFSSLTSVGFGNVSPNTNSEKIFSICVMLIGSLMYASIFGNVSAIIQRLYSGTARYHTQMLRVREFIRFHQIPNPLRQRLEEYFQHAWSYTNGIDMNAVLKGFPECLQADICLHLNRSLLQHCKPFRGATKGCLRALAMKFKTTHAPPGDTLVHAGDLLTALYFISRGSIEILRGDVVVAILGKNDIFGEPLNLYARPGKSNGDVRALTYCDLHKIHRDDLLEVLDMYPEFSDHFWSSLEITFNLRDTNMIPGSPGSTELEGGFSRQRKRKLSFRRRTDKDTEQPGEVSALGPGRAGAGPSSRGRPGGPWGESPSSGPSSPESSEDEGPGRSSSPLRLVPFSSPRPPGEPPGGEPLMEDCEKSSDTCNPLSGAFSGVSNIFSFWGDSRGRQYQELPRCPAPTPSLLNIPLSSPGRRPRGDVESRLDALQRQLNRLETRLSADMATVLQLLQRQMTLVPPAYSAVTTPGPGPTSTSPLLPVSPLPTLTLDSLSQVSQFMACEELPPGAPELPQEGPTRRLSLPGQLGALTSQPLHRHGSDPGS
row,Compound,"hERG current change (%, negative = inhibition) at 1uM"
1,CC(/C=C/c1ccccc1)=N/NC(=O)c1cnccn1,10.6%
2,Cc1ccc(C(=O)CSc2nnc(-c3ccccc3)o2)cc1,4.65%
3,COC(=O)c1ccc(NC(=O)c2ccccc2SC)cc1,-4.31%
4,O=C(CSc1nc2ccccc2[nH]1)N1CCN(c2ccc(F)cc2)CC1,-20%
5,CC(C)CC(=O)NC(=S)N1CCCCCC1,11.8%
6,COc1ccc(N2CCN(C(=O)c3cc(-c4ccc(F)cc4)[nH]c3C)CC2)cc1,-16.6%
7,Cc1ccccc1-c1cc(C(=O)Nc2nc3c(s2)CCCC3)c2ccccc2n1,12.1%
8,CCCN(CC(=O)Nc1ccc(Cl)cc1Cl)C(=O)/C=C/c1cccc([N+](=O)[O-])c1,7.36%
9,C=CCn1c(=O)c(C#N)cc2c(=O)n3ccccc3nc21,9.4%
10,O=C(O)CCc1nn2cnc3sc4c(c3c2nc1=O)CCCC4,0.675%
11,CN(C(=O)Cn1c(Cl)nc2c1c(=O)n(C)c(=O)n2C)C1CCS(=O)(=O)C1 (stereo not drawn),18.8%
12,Cc1ccc(NC(=O)CSC2=NN3CCCC(=O)N=C3S2)c(C)c1,0.842%
13,O=C(O)CCN1C(=O)c2ccccc2C1=O,19.2%
14,CCN(CC)CCn1c(NCc2cccc(OC)c2OC)nc2ccccc21,-9.21%
15,Cc1c(C(=O)OCC(=O)N2CC(=O)Nc3ccccc32)oc2ccccc12,23.9%
16,Cc1ccc(C)c(OCC(O)CNC2CCCC2)c1.Cl (stereo not drawn),16%
17,Cc1ccc(S(=O)(=O)N2CCC(C(=O)NCC3CC3)CC2)cc1,12.7%
18,O=C(Nc1ccc(Br)cc1F)c1ccc2c(c1)OCCO2,12.1%
19,CCCN(CC(=O)Nc1ccccc1OC)C(=O)c1cc(S(=O)(=O)NCc2ccccc2)ccc1C,5.6%

row,Compound,"hERG current change (%, negative = inhibition) at 1uM"
1,CC(=O)c1cccc(NC(=O)C2CCCN(S(=O)(=O)c3cccc4nonc34)C2)c1 (stereo not drawn),14.1%
2,O=C(NC1CCCc2c1cnn2-c1ccccc1F)c1ccccn1 (stereo not drawn),6.83%
3,Cc1nccn1CC(O)Cn1c2ccccc2c2ccccc21 (stereo not drawn),4.28%
4,Cc1cc2[nH]c3ccccc3c2cn1,3.72%
5,CCN1CCN(c2ccc([N+](=O)[O-])cc2C#N)CC1,-49.8%
6,O=C(Nc1ccc(S(=O)(=O)Nc2ncccn2)cc1)c1nn(Cc2ccccc2)c(=O)c2ccccc12,12.9%
7,O=C(O)c1ccc2c(c1)nnn2C1CCCCC1,8.07%
8,Brc1nnc2n1-c1ccccc1Sc1ccccc1-2,-13.6%
9,CCOc1cc(N2CCOCC2)c(OCC)cc1NC(=O)CN1C(=O)C2C3C=CC(C3)C2C1=O (stereo not drawn),11.9%
10,COc1cc(/C=N/NC(=O)c2cccnc2)ccc1OS(=O)(=O)c1cc(C)ccc1C,5.73%
11,COc1ccc(NC(=O)CSc2ccc3nnc(-c4cccnc4)n3n2)cc1OC,5.21%
12,COc1cc(/C(C)=N/N2CCOCC2)cc(OC)c1OC,13.6%
13,O=C(Nc1ccc(-n2cnnn2)cc1)C1CCCCC1,4.56%
14,O=C(CSCc1nc2c(nnn2Cc2ccc(F)cc2)c(=O)[nH]1)Nc1c(Cl)cc(Cl)cc1Cl,11.6%
15,Cc1nnc(SCC(=O)N(CCC#N)c2ccc3c(c2)OCCO3)s1,6.07%
16,Cc1cc(=O)[nH]c(NCc2ccc(Cl)cc2)n1,14.1%
17,Cc1cc(C)n(-c2nc3sc4c(c3c3nnc(SC(C)C)n23)CC(C)(C)OC4)n1,4.62%
18,COc1cccc(NC(=O)C2CCN(S(=O)(=O)c3ccc4[nH]c(=O)ccc4c3)CC2)c1,-9.04%
19,Cc1ccc2cc(CN(Cc3ccc(F)cc3)Cc3nnnn3C3CCCC3)c(=O)[nH]c2c1,8.66%

row,Compound,"hERG current change (%, negative = inhibition) at 1uM"
1,O=C(Nc1cccc(F)c1)C1CCN(C(=O)c2ccc(Cl)cc2)CC1,-30.5%
2,O=C(c1ccco1)N1CCN(C(=S)NCc2ccc(F)cc2)CC1,-3.27%
3,O=C(O)CN1C(=O)C2C3CC(C2C1=O)C1C(c2ccc(Cl)cc2)c2sc(=O)[nH]c2SC31 (stereo not drawn),4.08%
4,CC1=C(C(=O)OCc2ccccc2)C(c2cccs2)NC(=O)N1CCCC(=O)O (stereo not drawn),15.5%
5,O=C(Nc1nc2c(F)cc(F)cc2s1)C1CC1,13.1%
6,CCc1nnc(NC(=O)c2ccncc2)s1,9.59%
7,Cc1ccc(NC(=O)N2CCC(c3nc4c(nnn4Cc4c(F)cccc4Cl)c(=O)[nH]3)CC2)cc1,8.47%
8,COc1cccc(-c2nc3c(c(SCC(=O)N4CCOCC4)n2)Cc2c(CO)cnc(C)c2O3)c1,5.11%
9,Cc1c(C(=O)Nc2ccc3c4c(cccc24)CC3)cccc1[N+](=O)[O-],10.3%
10,COc1ccc(CCNS(=O)(=O)c2cn(C)nc2C)cc1,19.3%
11,Cc1ccccc1NC(=O)c1sc(NC(=O)COc2ccccc2)c(C#N)c1C,13.6%
12,CC(C)N(Cc1ccccc1)C(=O)COC(=O)c1ccc2c(c1)OCCO2,11.4%
13,Cn1ccc(=S)c2ccccc21,11.9%
14,O=S(=O)(c1ccc(SCCOc2ccc(Cl)cc2)nc1)N1CCCC1,-4.08%
15,CC(C)n1c(O)c(C=NCc2cccnc2)c(=O)[nH]c1=S,7.59%
16,Cc1c(Nc2nc3ccccc3nc2NS(=O)(=O)c2cccc(Cl)c2)c(=O)n(-c2ccccc2)n1C,3.99%
17,CCN(C(=O)CCCC(=O)N(CC)c1ccccc1)c1ccccc1,18.4%
18,C=CCn1c(SCC(N)=O)nnc1-c1cc(Br)ccc1O,-2.7%
19,COC(=O)CCCC(=O)N1CCCC(CNS(=O)(=O)c2ccc(OC)cc2)C1 (stereo not drawn),10.8%

# Source: PMC4336329 (PLoS ONE, 2015)
